Here are results for 87 compounds from PubChem BioAssay AID463173 (ICCB-Longwood Screening Facility, Harvard Medical School, 2010).

Screen size: about 52,000 compounds; about 4,300 (8.3%) were called active. Rule as the data show it: active = survival mostly below about 52% (no sharp cut-off); inactive = mostly above about 56%. This is one part of the list.

The subject of this assay is DeltatarO mutant. Put plainly: S. aureus survival, RN4220 and DeltatarO strains – OD600, teichoic acid synthesis inhibitors, primary screen (AID 463173). Particulars: S. aureus RN4220 wild type/DeltatarO growth, OD600, 18 h, stronger effect = lower value, screened at 18.75 µg/mL (by protocol).
Take `CS(=O)(=O)c1ccc2nc(NC(=O)CN3C(=O)c4ccccc4C3=O)sc2c1`: the survival was inactive: 85%. For the compound `Cc1cccc(N2CCN(C(c3ccccc3)c3nnc(-c4ccccc4F)o3)CC2)c1C` (configuration not stated), the survival is inactive: 58%. Take `Cc1cc(C)cc(NC(=O)C2CCCN(S(=O)(=O)c3cccc4nsnc34)C2)c1` (configuration not stated): the survival is inactive: 105%.

Consider `Fc1ccc(Nc2nc(SCc3ccccc3Cl)nc3ccccc23)cc1`, for which the survival is inactive: 63%. For the compound `NC(=O)C1CCN(C(=O)c2ccc3c(c2)N(Cc2cccc(Cl)c2)C(=O)c2ccccc2S3=O)CC1` (configuration not stated), the survival was inactive: 70%. Regarding `CCOC(=O)c1c(C)[nH]c(C)c1S(=O)(=O)NCC(=O)Nc1ccc(C)cc1C`, the survival was inactive: 72%. Turning to `COc1ccc(CSc2nc3ccncc3n2CC(=O)Nc2cc(C)cc(C)c2)cc1`, the survival is active: 60%. In the case of `Cc1csc2nc(COC(=O)CNC(=O)c3ccc(F)cc3)cc(=O)n12`, the survival was inactive: 71%. With `COc1ccc(-n2nc3ccc(NC(=O)c4c(OC)cccc4OC)cc3n2)cc1` the figure was inactive: 135%; with `O=C(Cn1c(=O)n(-c2ccc(F)cc2)c(=O)c2sc3ccccc3c21)NC1CCCC1`, inactive: 90%.

`CC(OC(=O)C1=Cc2ccccc2OC1)C(=O)NCC1CCCO1` (configuration not stated): the survival is inactive: 95%.

Consider `CCC1CCCCN1S(=O)(=O)c1ccc(S(=O)(=O)n2cnc3cc(C)c(C)cc32)cc1` (configuration not stated), for which the survival is inactive: 102%.

Take `CCc1nc2ccccc2n2c(-c3ccc(C)cc3)c3c(=O)n(C)c(=O)n(C)c3c12`: the survival was inactive: 68%. Take `COc1ccccc1CNC(=O)C(C)n1ccc2cc(S(=O)(=O)N3CCCC3)ccc21` (configuration not stated): the survival was inactive: 81%. With `COc1ccc(CNC(=O)c2ccc3nc(CCc4ccccc4)oc3c2)cc1` the figure was active: 0%; with `Cc1ccc(-c2[nH]c3c(c2-c2c(-n4cccc4)n(C)c(=O)[nH]c2=O)c(=O)[nH]c(=O)n3C)cc1`, inactive: 65%. For the compound `CCOC(=O)c1c(C)oc2nc(C)nc(N3CCN(c4ccccc4F)CC3)c12`, the survival was inactive: 90%. Consider `CCOc1ccc(NC(=O)C2CCN(c3nnc(C)c4c(C)n(-c5ccccc5)nc34)CC2)cc1`, for which the survival is inactive: 67%.

As for `Cc1ccc(NC(=O)CSc2nc3c([nH]c4ccccc43)c(=O)n2-c2ccccc2)cc1Cl`, the survival was inactive: 82%.

Consider `Cc1ccc(C2Nc3cc(C)c(C)cc3-n3c(-c4ccccc4)c4c(=O)n(C)c(=O)n(C)c4c32)o1` (configuration not stated), for which the survival is inactive: 68%. On to `Cc1[nH]n2c(=O)cc(-c3ccc(Cl)cc3)nc2c1-c1ccccc1`, for which the survival was active: 3%. With `Cn1c(=O)c2c(nc(N3CCOCC3)n2Cc2cccc(Br)c2)n(C)c1=O` the figure was inactive: 80%. In the case of `COc1ccc(N2CCN(C(CNC(=O)C(=O)NCc3cccnc3)c3cccnc3)CC2)cc1` (configuration not stated), the survival is inactive: 102%. Consider `Cc1ccccc1CNC(=O)Cc1ccc(NC(=O)N2CCCCc3ccccc32)cc1`, for which the survival was inactive: 76%. Regarding `CCOc1ccc(C(=O)c2cn(CC(=O)Nc3cccc(OC)c3)c3cc4c(cc3c2=O)OCCO4)cc1`, the survival is inactive: 107%. Regarding `Cc1nn2c(-c3ccco3)ccnc2c1-c1ccc(Br)cc1`, the survival was inactive: 81%. As to `Cc1c(C(=O)N2CCCCC2)c(S(=O)(=O)NCc2ccc(N(C)C)cc2)c(C)n1C`, the survival was inactive: 120%. For the compound `COc1ccc(-c2cc(C(=O)Oc3ccc(C)cc3)c3cc(C)ccc3n2)cc1`, the survival was active: 22%. As to `O=C(CN1C(=O)COc2ccc(S(=O)(=O)N3CCCCCC3)cc21)Nc1cccc(Cl)c1`, the survival was inactive: 60%. Turning to `CC(c1ccccc1)n1cc(C(=O)NCCCN2CCCC2=O)nn1` (configuration not stated), the survival is inactive: 93%.

With `CC1C(=O)CCNC1c1ccccc1` (configuration not stated), the survival is inactive: 65%. Regarding `Cc1cc(=O)n(C(C)C(=O)N2CCCc3ccccc32)c2c1c(C)nn2-c1ccccc1` (configuration not stated), the survival was inactive: 115%. As for `Cc1ccc2[nH]cc(S(=O)(=O)c3ccc(C)c(C)c3)c(=O)c2c1`, the survival was inactive: 81%.

Regarding `N#C/C(=C\c1ccc[nH]1)C(=O)N1CCc2ccccc2C1`, the survival is inactive: 72%.

Take `CC1Cn2c(C(=O)NCCc3ccc(Cl)cc3)cc3cccc(c32)S1` (configuration not stated): the survival is inactive: 86%. On to `Cc1ccc(F)cc1NC(=O)CCc1c(C)nn(-c2ccc(N3CCOCC3)nn2)c1C`, for which the survival was inactive: 97%.

For `COc1ccc(NC(=O)CCS(=O)(=O)c2nc(-c3ccc4c(c3)OCO4)cc(C(F)(F)F)n2)cc1`, the survival was inactive: 103%. With `COc1ccc(C)cc1NC(=O)CCc1c(C)nn(-c2ccc(N3CCCCC3)nn2)c1C` the figure was inactive: 78%; with `Cc1ccc(/C=C/c2onc(C)c2S(=O)(=O)N2CCC(C(=O)N3CCOc4ccc(C)cc43)CC2)cc1`, inactive: 123%. With `Cc1c(C(=O)N2CCCC2)oc2c1-c1nn(CC(=O)NCc3ccccc3Br)cc1CC2`, the survival is inactive: 72%.

`CSc1ccc(C2CC(=O)Oc3c2c(=O)n(C)c2ccccc32)cc1` (configuration not stated): the survival was inactive: 63%. With `CCc1nn2c(=O)cc(COC(=O)c3ccc(NC(=O)CCc4ccccc4)cc3)nc2s1` the figure was inactive: 99%. In the case of `Nc1ccc(NC(=O)c2cccc(C(=O)Nc3ccc(N)cc3Cl)c2)c(Cl)c1`, the survival was inactive: 148%. With `Cc1c(C(=O)NN=C2CCCCCC2)nnn1-c1nonc1N` the figure was inactive: 113%; with `COc1cccc(C2(O)CCN(C(=O)C3CCC3)CC2)c1`, inactive: 102%. Turning to `O=C(Nc1cccnc1)c1ccccc1Oc1ccccc1`, the survival is active: 65%.

As to `Cc1ccc(-c2nnc(Nc3ccc(OC(F)(F)Cl)cc3)c3ccccc23)cc1S(=O)(=O)NC(C)(C)CO`, the survival is inactive: 57%. In the case of `CC(=O)N1CCc2c(sc3nc(SCC(C)C)n(-c4ccc(C)c(Cl)c4)c(=O)c23)C1`, the survival is active: 45%. In the case of `Cc1nc2scc(C)n2c(=O)c1S(=O)(=O)Nc1ccc(N2CCN(S(C)(=O)=O)CC2)cc1`, the survival is inactive: 84%. With `COc1ccccc1N1CCN(C(=O)c2cnn(-c3cccc(Cl)c3)c2C2CCN(C(=O)OC(C)(C)C)CC2)CC1` the figure was inactive: 75%; with `C#CC(C)(CC)NC(=O)Cn1nnc(-c2ccc(OCc3ccccc3C)cc2)n1` (configuration not stated), inactive: 125%.

As for `COc1ccccc1CNc1nc(-c2ccco2)nn1C(=O)c1cc(OC)c(OC)c(OC)c1`, the survival is inactive: 49%. The value for `CCc1ccccc1NC(=O)c1cc(S(=O)(=O)N2CCc3ccccc32)ccc1F` was inactive: 95%. As to `Cc1ccccc1CNC(=O)C1=Cc2ccccc2OC1`, the survival was inactive: 80%.

Take `Cc1nn(C(C)C(=O)Nc2ccc(C(C)C)cc2)c(=O)c2c1sc1ccccc12` (configuration not stated): the survival is active: 58%. On to `CCc1nc(SC)ncc1C(=O)N1CCN(c2cc(Cl)ccc2C)CC1`, for which the survival is inactive: 80%.

Take `COc1cc(-c2nc(SCC(=O)Nc3ccc(C)cc3)c(-c3ccc(F)cc3)[nH]2)cc(OC)c1OC`: the survival is inactive: 91%.

Take `CCCN(CCC)CCCNC(=O)c1cnn(-c2ccc(F)cc2)c1-n1cccc1`: the survival was inactive: 112%.

For `Cc1cc(=O)oc2cc(OCC(=O)NCc3ccco3)ccc12`, the survival is inactive: 74%. On to `O=C(Nc1nnc(-c2cc(Cl)ccc2Cl)o1)c1ccc2c(c1)OCCO2`, for which the survival was inactive: 87%. Regarding `CCCc1nc2ccc(NC(=O)c3ccco3)cc2c(=O)n1Cc1ccccc1Cl`, the survival is inactive: 101%. In the case of `CCc1ccc(NS(=O)(=O)c2ccc3oc(=O)c4ncn(CC)c4c3c2)cc1`, the survival was inactive: 94%.

As for `CCOC(=O)C1CCC(CN(Cc2ccc(OC)cc2)S(=O)(=O)c2ccc(F)c(C(=O)Nc3ccc(C)c(C)c3)c2)CC1` (configuration not stated), the survival is inactive: 77%. For the compound `COc1ccc(-n2c(Cc3ccccc3)nnc2SCc2nc(-c3cccs3)no2)cc1`, the survival was inactive: 65%. `O=C(CCCc1ccccc1)N1CCN(c2ccccn2)CC1`: the survival is inactive: 91%.

In the case of `O=c1cc(CSc2ncn[nH]2)[nH]c2ccc(F)cc12`, the survival is inactive: 78%. `CCc1nc2ccccc2n1CCO`: the survival was inactive: 77%. In the case of `CC(=O)Nc1ccccc1OC(=O)N1CCOCC1`, the survival is inactive: 66%. For the compound `COc1cccc(C2c3c(oc4cc(C)cc(C)c4c3=O)C(=O)N2CCc2ccc(OC)c(OC)c2)c1` (configuration not stated), the survival is inactive: 60%. In the case of `COc1ccc(NC(=O)CCS(=O)(=O)c2nc(-c3cccs3)cc(C(F)(F)F)n2)cc1`, the survival is inactive: 81%. With `CCCc1cc(=O)n2c(C(=O)Nc3ccc(OCC)cc3)c(C(=O)Nc3ccc(C)cc3)sc2n1`, the survival was inactive: 55%. `COc1ccccc1CNC(=O)CCC1N=C2c3ccccc3N=C(SCC(=O)Nc3ccc(F)cc3)N2C1=O` (configuration not stated): the survival was inactive: 84%.

In the case of `Cc1ccc2c(c1)c1c(c(=O)n(-c3cccc(Cl)c3)c(=O)n1CC(=O)NCCC1=CCCCC1)n2C`, the survival was inactive: 72%. Consider `CCn1c(SCc2ccccc2C)nc(=O)c2c(C(=O)OC)cc(C3CC3)nc21`, for which the survival was inactive: 71%.

With `CC(C(=O)O)N1c2cccc3cccc(c23)S1(=O)=O` (configuration not stated), the survival was inactive: 98%. The value for `COc1ccc(CNc2nc(-c3ccccc3)nn2S(=O)(=O)c2ccccc2)cc1` was inactive: 50%. Take `CN(CC(=O)NCc1ccc(Cl)cc1)S(=O)(=O)c1ccc2[nH]c3c(c2c1)CCCC3`: the survival is inactive: 97%. As to `CCn1cnc2sc(C(=O)Nc3ccccc3)c(C)c2c1=O`, the survival is inactive: 87%. With `CC(=O)Nc1cc(-c2nc3cc(Cl)ccc3o2)ccc1C` the figure was inactive: 51%. As for `Cc1ccc(Cl)cc1Nc1nn2c(=O)c3ccc(C(=O)Nc4ccc(F)cc4)cc3nc2s1`, the survival was inactive: 97%. As for `Cc1ccc(NC(=O)CSCC(=O)O)cc1`, the survival was inactive: 96%. As for `Cc1cc(Cl)ccc1NC(=O)Cn1nc(C)c2c(C)n(-c3ccccc3)nc2c1=O`, the survival is inactive: 63%. With `CN(C)C1(CNC(=O)COc2ccc([N+](=O)[O-])cc2)CCCCC1` the figure was inactive: 102%. Consider `O=C(CN1C(=O)c2ccccc2C1=O)Nc1cccnc1`, for which the survival was inactive: 76%. For the compound `CCN(CC)S(=O)(=O)c1ccc2c(c1)N(CC(=O)N1CCN(c3cccc(Cl)c3)CC1)C(=O)CO2`, the survival is inactive: 74%. For `CCC1CN(C(=O)N2CCC(C(=O)NCCc3cc(OC)ccc3OC)CC2)c2ccccc2O1` (configuration not stated), the survival is inactive: 78%. The value for `O=C(NN=C1CCCCC1)c1n[nH]c2c1CCC2` was inactive: 97%.
